In patent US12459974B2, “Bicyclic peptide ligands specific for Nectin-4” (priority 2018, dated 2025):
Part of at least one peptide drawing is inferred or uncertain, most often the ends. *1 amine or outer side, *2 acyl side, *3 side chain or, on linkers, in order; H or OH if unused. Where a SMILES comes first, the peptide text is derived from it. Bridges are numbered along the chain shown (N, C = ends). [ ]: non-standard residue; d: D form. TATA = O=C(CC[*:1])N1CN(C(=O)CC[*:2])CN(C(=O)CC[*:3])C1; Phe(4-COOH) = N[C@@H](Cc1ccc(C(=O)O)cc1)C(=O)O

Target: T1, human Nectin-4 (Homo sapiens, UniProt Q96NY8)
T1 sequence (Q96NY8 32-510): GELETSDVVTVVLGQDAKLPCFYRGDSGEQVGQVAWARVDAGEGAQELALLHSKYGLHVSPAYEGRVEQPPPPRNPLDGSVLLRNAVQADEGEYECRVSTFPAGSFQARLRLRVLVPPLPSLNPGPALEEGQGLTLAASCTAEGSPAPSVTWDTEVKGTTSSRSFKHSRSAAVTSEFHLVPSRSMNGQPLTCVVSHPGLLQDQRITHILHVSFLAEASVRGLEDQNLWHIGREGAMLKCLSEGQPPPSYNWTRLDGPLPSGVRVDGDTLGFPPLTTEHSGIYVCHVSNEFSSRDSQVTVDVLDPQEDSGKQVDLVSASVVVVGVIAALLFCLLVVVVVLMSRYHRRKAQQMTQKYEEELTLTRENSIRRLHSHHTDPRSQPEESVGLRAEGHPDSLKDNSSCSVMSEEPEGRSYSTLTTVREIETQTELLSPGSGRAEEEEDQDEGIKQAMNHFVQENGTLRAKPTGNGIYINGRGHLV
Assay: Nectin-4 competition binding assay (fluorescence polarisation)
Conditions: competition with fluorescent peptide SEQ ID NO: 217
Description: Peptides were diluted to an appropriate concentration in assay buffer as described in the direct binding assay with a maximum of 5% DMSO, then serially diluted 1 in 2. Five μL of diluted peptide was added to the plate followed by 10 μL of human Nectin-4, then 10 μL fluorescent peptide added. Measurements were conducted as for the direct binding assay, however the gain was determined prior to the first measurement. Data analysis was in Systat Sigmaplot version 12.0 where the mP values were fit to a user defined cubic equation to generate a Ki value: • f=ymin+(ymax−ymin)/Lig*((Lig*((2*((Klig+Kcomp+Lig+Comp-Prot*c)^2-3*(Kcomp*(Lig-Prot*c)+Klig*(Comp-Prot*c)+Klig*Kcomp))^0.5*COS(ARCCOS((−2*(Klig+Kcomp+Lig+Comp-Prot*c)^3+9*(Klig+Kcomp+Lig+Comp-Prot*c)*(Kcomp*(Lig-Prot*c)+Klig*(Comp-Prot*c)+Klig*Kcomp)−27*(−1*Klig*Kcomp*Prot*c)/(2*((((Klig+Kcomp+Lig+Comp-Prot*c)^2−3*(Kcomp*(Lig-Prot*c)+Klig*(Comp-Prot*c)+Klig*Kcomp))^3)^0.5)))/3))−(Klig+Kcomp+Lig+Comp-Prot*c)))/((3*Klig)+((2*((Klig+Kcomp+Lig+Comp-Prot*c)^2−3*(Kcomp*(Lig-Prot*c)+Klig*(Comp-Prot*c)+Klig*Kcomp))^0.5*COS (ARCCOS ((−2*(Klig+Kcomp+Lig+Comp-Prot*c)^3+9*(Klig+Kcomp+Lig+Comp-Prot*c)*(Kcomp*(Lig-Prot*c)+Klig*(Comp-Prot*c)+Klig*Kcomp)-27*(−1*Klig*Kcomp*Prot*c))/(2*((((Klig+Kcomp+Lig+Comp-Prot*c)^2-3*(Kcomp*(Lig-Prot*c)+Klig*(Comp-Prot+c)+Klig*Kcomp))^3)^0.5))/3)−(Klig+Kcomp+Lig+Comp-Prot*c)))).
“Lig”, “KLig” and “Prot” were all defined values relating to: fluorescent peptide concentration, the Kd of the fluorescent peptide and Nectin concentration respectively.

First: CC[C@H](C)[C@@H]1NC(=O)[C@H](CCCNC(=N)N)NC(=O)[C@H](CC(N)=O)NC(=O)[C@@H]2CSCCC(=O)N3CN(CN(C3)C(=O)CCSC[C@H](NC(=O)[C@H](Cc3c[nH]c4ccccc34)NC(=O)[C@@H](C)NC(=O)[C@H](CCC(N)=O)NC(C)=O)C(=O)N[C@@H](C)C(=O)N3CCC[C@H]3C(=O)N[C@@H](CC(C)C)C(=O)N[C@@H](CO)C(=O)N[C@@H](CC(=O)O)C(=O)N[C@@H](Cc3ccc(O)cc3)C(=O)N[C@@H](Cc3c[nH]c4ccccc34)C(=O)N2)C(=O)CCSC[C@@H](C(N)=O)NC1=O [BCY7635, Ac-Q[dA]W-(SEQ ID NO: 34)] (Ac-Q[dA]WCAPLSDYWCNRIC-NH2; linker 4-12-16 via TATA; C-terminus assumed)
Second: CC[C@H](C)[C@@H]1NC(=O)[C@H](CCCNC(=N)N)NC(=O)[C@H](CC(N)=O)NC(=O)[C@@H]2CSCCC(=O)N3CN(CN(C3)C(=O)CCSC[C@H](NC(=O)[C@H](Cc3c[nH]c4ccccc34)NC(=O)[C@H](CCCCN)NC(=O)[C@H](CCC(N)=O)NC(C)=O)C(=O)N[C@@H](C)C(=O)N3CCC[C@H]3C(=O)N[C@@H](CC(C)C)C(=O)N[C@H](C)C(=O)N[C@@H](CC(=O)O)C(=O)N[C@@H](Cc3ccc(O)cc3)C(=O)N[C@@H](Cc3c[nH]c4ccccc34)C(=O)N2)C(=O)CCSC[C@@H](C(N)=O)NC1=O [BCY7639, Ac-QKW-(SEQ ID NO: 108)] (Ac-QKWCAPL[dA]DYWCNRIC-NH2; linker 4-12-16 via TATA; C-terminus assumed)
The Ki of the first is 32-fold lower: 15.2 nM for the first, 490 nM for the second. The first binds more tightly here.

Compared with `CC[C@H](C)[C@@H]1NC(=O)[C@H](CCCNC(=N)N)NC(=O)[C@H](CC(N)=O)NC(=O)[C@@H]2CSCCC(=O)N3CN(CN(C3)C(=O)CCSC[C@H](NC(=O)[C@@H](C)NC(=O)[C@H](CCCCN)NC(=O)[C@H](CCC(N)=O)NC(C)=O)C(=O)N[C@@H](C)C(=O)N3CCC[C@H]3C(=O)N[C@@H](CC(C)C)C(=O)N[C@@H](CO)C(=O)N[C@@H](CC(=O)O)C(=O)N[C@@H](Cc3ccc(O)cc3)C(=O)N[C@@H](Cc3c[nH]c4ccccc34)C(=O)N2)C(=O)CCSC[C@@H](C(N)=O)NC1=O` [BCY7636, Ac-QK[dA]-(SEQ ID NO: 34)] (Ac-QK[dA]CAPLSDYWCNRIC-NH2; linker 4-12-16 via TATA; C-terminus assumed), `CC[C@H](C)[C@@H]1NC(=O)[C@H](CCCNC(=N)N)NC(=O)[C@H](CC(N)=O)NC(=O)[C@@H]2CSCCC(=O)N3CN(CN(C3)C(=O)CCSC[C@H](NC(=O)[C@H](Cc3c[nH]c4ccccc34)NC(=O)[C@H](CCCCN)NC(=O)[C@H](CCC(N)=O)NC(C)=O)C(=O)N[C@@H](C)C(=O)N3CCC[C@H]3C(=O)N[C@@H](CC(C)C)C(=O)N[C@@H](CO)C(=O)N[C@H](C)C(=O)N[C@@H](Cc3ccc(O)cc3)C(=O)N[C@@H](Cc3c[nH]c4ccccc34)C(=O)N2)C(=O)CCSC[C@@H](C(N)=O)NC1=O` [BCY7640, Ac-QKW-(SEQ ID NO: 109)] is 6.1-fold lower in Ki: 522 nM for the first, 86 nM for the second.

First: CC[C@H](C)[C@@H]1NC(=O)[C@H](CCCNC(=N)N)NC(=O)[C@@H](C)NC(=O)[C@@H]2CSCCC(=O)N3CN(CN(C3)C(=O)CCSC[C@H](NC(=O)[C@H](Cc3c[nH]c4ccccc34)NC(=O)[C@H](CCCCN)NC(=O)[C@H](CCC(N)=O)NC(C)=O)C(=O)N[C@@H](C)C(=O)N3CCC[C@H]3C(=O)N[C@@H](CC(C)C)C(=O)N[C@@H](CO)C(=O)N[C@@H](CC(=O)O)C(=O)N[C@@H](Cc3ccc(O)cc3)C(=O)N[C@@H](Cc3c[nH]c4ccccc34)C(=O)N2)C(=O)CCSC[C@@H](C(N)=O)NC1=O [BCY7643, Ac-QKW-(SEQ ID NO: 110)] (Ac-QKWCAPLSDYWC[dA]RIC-NH2; linker 4-12-16 via TATA; C-terminus assumed)
Second: CC[C@H](C)[C@@H]1NC(=O)[C@@H]2CCCN2C(=O)[C@H]([C@@H](C)O)NC(=O)[C@H](CO)NC(=O)[C@H](Cc2c[nH]c3ccccc23)NC(=O)[C@H](CC(N)=O)NC(=O)[C@H](CCCCNC(=N)N)NC(=O)[C@H](CCCCN)NC(=O)[C@@H]2CSCCC(=O)N3CN(CN(C3)C(=O)CCSC[C@H](NC(C)=O)C(=O)N3CCC[C@H]3C(=O)N[C@@H](Cc3ccccc3)C(=O)N[C@H](CC(=O)O)C(=O)N2)C(=O)CCSC[C@@H](C(N)=O)NC(=O)[C@H](Cc2c[nH]c3ccccc23)NC1=O [BCY7821, Ac-(SEQ ID NO: 121)]
The Ki of the first is 4.4-fold lower: 19 nM for the first, 84 nM for the second. The first binds more tightly here.

First: CC[C@H](C)[C@@H]1NC(=O)[C@@H]2CCCN2C(=O)[C@H](Cc2c[nH]c3ccccc23)NC(=O)[C@H](CO)NC(=O)[C@H](Cc2c[nH]c3ccccc23)NC(=O)[C@H](CC(N)=O)NC(=O)[C@H](CCCCN)NC(=O)[C@H](CCSC)NC(=O)[C@@H]2CSCCC(=O)N3CN(CN(C3)C(=O)CCSC[C@H](NC(=O)[C@H](Cc3ccc(C(=O)O)cc3)NC(C)=O)C(=O)N3CCC[C@H]3C(=O)N[C@@H](Cc3ccccc3)C(=O)NCC(=O)N2)C(=O)CCSC[C@@H](C(N)=O)NC(=O)[C@H](Cc2c[nH]c3ccccc23)NC1=O [BCY7656, Ac-[pCoPhe]-(SEQ ID NO: 1)] (Ac-[Phe(4-COOH)]CPFGCMKNWSWPIWC-NH2; linker 2-6-16 via TATA)
Second: CC[C@H](C)[C@@H]1NC(=O)[C@@H]2CCCN2C(=O)[C@H](Cc2c[nH]c3ccccc23)NC(=O)[C@H](CO)NC(=O)[C@H](Cc2c[nH]c3ccccc23)NC(=O)[C@H](CC(N)=O)NC(=O)[C@H](CCCCN)NC(=O)[C@H](CCSC)NC(=O)[C@@H]2CSCCC(=O)N3CN(CN(C3)C(=O)CCSC[C@H](NC(C)=O)C(=O)N3CCC[C@H]3C(=O)N[C@@H](Cc3ccccc3)C(=O)NCC(=O)N2)C(=O)CCSC[C@@H](C(N)=O)NC(=O)[C@H](Cc2ccc3ccccc3c2)NC1=O [BCY7667, Ac-(SEQ ID NO: 113)]
The Ki of the first is 2.6-fold higher: 71.9 nM for the first, 27.3 nM for the second. The second binds more tightly here.

`CC[C@H](C)[C@@H]1NC(=O)[C@@H]2CCCN2C(=O)[C@H]([C@@H](C)O)NC(=O)[C@H](CO)NC(=O)[C@H](Cc2c[nH]c3ccccc23)NC(=O)[C@H](CC(N)=O)NC(=O)[C@H](CCCCN)NC(=O)[C@H](CCSC)NC(=O)[C@@H]2CSCCC(=O)N3CN(CN(C3)C(=O)CCSC[C@H](NC(C)=O)C(=O)N3CCC[C@H]3C(=O)N[C@@H](Cc3ccccc3)C(=O)N[C@H](CC(=O)O)C(=O)N2)C(=O)CCSC[C@@H](C(N)=O)NC(=O)[C@H](Cc2c[nH]c3ccccc23)NC1=O` [BCY7819, Ac-(SEQ ID NO: 119)] and `CC[C@H](C)[C@@H]1NC(=O)[C@@H]2CCCN2C(=O)[C@H]([C@@H](C)O)NC(=O)[C@H](CO)NC(=O)[C@H](Cc2c[nH]c3ccccc23)NC(=O)[C@H](CC(N)=O)NC(=O)[C@H](CCCCNC(=N)N)NC(=O)[C@H](CCSC)NC(=O)[C@@H]2CSCCC(=O)N3CN(CN(C3)C(=O)CCSC[C@H](NC(C)=O)C(=O)N3CCC[C@H]3C(=O)N[C@@H](Cc3ccccc3)C(=O)N[C@H](CCCCN)C(=O)N2)C(=O)CCSC[C@@H](C(N)=O)NC(=O)[C@H](Cc2c[nH]c3ccccc23)NC1=O` [BCY7820, Ac-(SEQ ID NO: 120)] are within 1.5-fold of each other in Ki: 12 nM for the first, 10 nM for the second.

Compared with `CC[C@H](C)[C@@H]1NC(=O)[C@@H]2CCCN2C(=O)[C@H]([C@@H](C)O)NC(=O)[C@H](CO)NC(=O)[C@H](Cc2c[nH]c3ccccc23)NC(=O)[C@H](CC(N)=O)NC(=O)[C@H](CCCCNC(=N)N)NC(=O)[C@H](CCSC)NC(=O)[C@@H]2CSCCC(=O)N3CN(CN(C3)C(=O)CCSC[C@H](NC(C)=O)C(=O)N3COC[C@H]3C(=O)N[C@@H](Cc3ccccc3)C(=O)N[C@H](CC(=O)O)C(=O)N2)C(=O)CCSC[C@@H](C(N)=O)NC(=O)[C@H](Cc2c[nH]c3ccccc23)NC1=O` [BCY7876, Ac-(SEQ ID NO: 123)], `CC[C@H](C)[C@@H]1NC(=O)[C@@H]2CCCN2C(=O)[C@H]([C@@H](C)O)NC(=O)[C@H](CO)NC(=O)[C@H](Cc2c[nH]c3ccccc23)NC(=O)[C@H](Cc2cccs2)NC(=O)[C@H](CCCCNC(=N)N)NC(=O)[C@H](CCSC)NC(=O)[C@@H]2CSCCC(=O)N3CN(CN(C3)C(=O)CCSC[C@H](NC(C)=O)C(=O)N3CCC[C@H]3C(=O)N[C@@H](Cc3ccccc3)C(=O)N[C@H](CC(=O)O)C(=O)N2)C(=O)CCSC[C@@H](C(N)=O)NC(=O)[C@H](Cc2c[nH]c3ccccc23)NC1=O` [BCY7877, Ac-(SEQ ID NO: 124)] is 6.2-fold lower in Ki: 59.2 nM for the first, 9.5 nM for the second. The second binds more tightly here.
